Sequences and labels used below:
B1: LINE1-full (parent)
chain: UACGUAGGUGGUUUUCCCCUGAUAGUGCUAAGGGGGCCUGGAAGUUUGGACUGGGCAGAGCUCAACACAGCGUGGCAAAGUGGCUGUGGCUAGACUGCCUCUCUGGAUUCCUCGUCACUCAGCAGGGCAUCUCUGAGAGAAAUGCC

Read counts are not given, so values of variants with three or more changes are uncertain.

This data set covers variants of B1. The data set can be described thus: self-cleavage, relative activity (ratio to wild type); higher = more cleavage; in vitro, sequencing; the parent is a self-cleaving ribozyme.
In the case of U9C A30G U132C, the self-cleavage was determined as 1.35. The value for G8A U39G U45C U104G A117U A142G was 0; that for G8U A42G U81A was 2.16. The value for U9A A24U U143A was 0.72. For the variant G8A U45C C71A U109C A121G, the self-cleavage was determined as 0.31. The same measure for G8A A42G U81A: 2.94; for U9A U13C C98U C123A: 0.52; for U9C A57U U104A U134G: 0.14. The value for U9C A65G A79U was 0.34; that for U9A U14A A140G was 0.8; that for U9C A24G U39C U96C was 0.

With G7A U62C A138G, the self-cleavage turned out to be 0.02. The value for U9C G53U A64U U143C was 0.61. The same measure for G8A G48A G82A: 1.89; for U9C G53A U85C C101A U132C: 0.29. The same measure for U9A A77G G97C U134G: 0.41. Consider U9A U104A A140G, for which the self-cleavage was determined as 0.22. The value for G8A U14C U134A was 0.97.

For U9A U15A G34A A94G U104C, the self-cleavage is 0.13. As for U9A A30G A78G U109C, the self-cleavage is 0.84. U9C A77U A78U A92U: the self-cleavage came out at 0.76. The same measure for U9A U52C A59G A78C: 0; for U9C A121U A140G: 1.16; for G7U U15C A107G: 2.3. The same measure for U9C A30G A107G: 0; for U9A A67G U132C: 0.81; for U9C A129U U134G U143C: 0. The same measure for U9A U13C G21A U73C: 0; for U9A U115C A141G: 1.47. In the case of U9C U12C U13C U134A, the self-cleavage is 1.95. The same measure for U9A U46A U87C: 0.29; for U9A U62C A78G U85C A107G: 0; for U9A U100C U109C: 1.15. In the case of U9A A57G A69G A121G, the self-cleavage was found to be 0. Consider U9C A42G A69U U73A, for which the self-cleavage is 0.06. Turning to G8U C131U U132A, the self-cleavage is 1.98.

Turning to U9A C68A A124G G135A A138G, the self-cleavage is 0.18.

As to U9C U14C A107G A140U, the self-cleavage worked out at 0.47.

Regarding U9C U14A A69G C71U U115A C120U, the self-cleavage worked out at 0.16. The same measure for U9A C131U A141G: 0.88; for U9A U29A G32U A64G: 0.57.

For the variant U9C A30U A42U A140G, the self-cleavage came to 0.46. The same measure for U9A U15C C98U C110A: 0.53. On to U9C U13A A31U U100C, for which the self-cleavage was found to be 1.47.

For the variant U9C G25A U26C U46G U52A U85C U100A A107G U115A, the self-cleavage stood at 0.

For G8A C71U U81A U91C, the self-cleavage amounted to 0.17. The same measure for U9A A22U G122A A124G: 1.12; for U9C U13C U47C A59G: 0.37.

Consider G7C A77U A78G, for which the self-cleavage came out at 0.92.

Regarding G7U U12C A43G A65U, the self-cleavage is 0.53.

As to U9A C71A U134C, the self-cleavage turned out to be 0.2. The same measure for U9A A57U U62A A129G: 0.04.

As for U9C A31U G74A, the self-cleavage turned out to be 0.8. The value for U9C C99U U100G U130C was 0.25; that for U9A U15A U100C A138G was 0.89; that for U9C C37G U85C was 0.25. The same measure for U9A U14C U20C U39C: 0.29; for U9A C56A C103A A142G: 0.11; for U9A A22U U134C: 1.07. As for U9C U14A U104C, the self-cleavage turned out to be 0.28. The value for U9C U13C C16G G53U U115A was 0.51; that for U9C G55U C110U was 0.57.

On to U9C U12C C63U U132C, for which the self-cleavage was determined as 0.78. In the case of G7C U12G A22G U73C, the self-cleavage came to 0.48.

On to U9C A67G U130C, for which the self-cleavage worked out at 0.56.

With G8U U73C A79G C113A A121U, the self-cleavage was 1.66. The same measure for U9C U13C A92U U115C A138G: 1.97; for G7U U12C U81A: 0.6. The same measure for U9A C19U A77G U119G: 0.95.

Consider U9C A67G C68A A77G, for which the self-cleavage stood at 0.15. The value for U9A A22G A30G C51U A57U was 0.42. U9C G32C U119C: the self-cleavage stood at 1.24. The value for U9A U52C A77G U100C was 1.31; that for U9A U45C A65C U100C U130A was 0; that for G8U U85A U108C U134C was 0.07. Turning to U9A G36C A77U U100C A121U, the self-cleavage was 1.59. The same measure for U9C A136G A142G: 1.58; for U9C U14C A69G A77G U96A U115A: 0. U9A U20C A43C C131A A138G: the self-cleavage stood at 0.38. The value for U9A A94G G114A was 0.26; that for U9C G72A C98U A124U was 0.49; that for U9A U26A U45C was 0.84.

Take U9C C71U A117G: the self-cleavage amounted to 0.96. The same measure for U9C A24G U26C A124U A141G: 0. The value for G7A U26G A42G C84G G86A was 0.15; that for U9C A77U A136G was 0.89. Consider G8C A94U U115C, for which the self-cleavage was 0.8. The value for U9A U13C A43G U81A U130A A136G A142U was 1.61; that for U9C C63A A121U was 0.05.

In the case of U9A U20C A64C, the self-cleavage was determined as 0. The value for U9A U45G A121G was 0.25. The value for U9A A57U A138G U143A was 0.22; that for U9A U23A U46G was 0.9; that for U9A U23A U73C A136U was 0.66.

Consider U9C A30G C76G A129G, for which the self-cleavage is 2.27. The value for U9C G11A U102C U115C A141G was 0.88; that for G8A U12G A129G U130C A136G was 0; that for U9A U13G A77G A140G was 0.54. As to U9C U13C U73C, the self-cleavage turned out to be 0.97.

For the variant G7C U13C G86A U115A, the self-cleavage stood at 0.28.

On to U9C A42G C51U U112C A141U, for which the self-cleavage is 1.83.

Consider G7C A94G A140C, for which the self-cleavage was 0.92.

As to U9A U14C U73C U143A, the self-cleavage stood at 2.45. The value for U9A U81A U132C was 1.89; that for U9A U62C A141G was 0.11. U9C C28U A50U: the self-cleavage amounted to 1.01. Regarding U9A A65G A77U, the self-cleavage came out at 0.16. The value for U9C U12A U132C was 0.96; that for U9A C38U A69G U87A was 0.12. The same measure for U9A A22G G88A: 0.28. The value for G7U U12C A22G U112C was 0.85.

Take U9C G10U A59U C71U: the self-cleavage stood at 0.09.

As for G7A U39A A77G, the self-cleavage worked out at 2.97. The value for G8A A50U U115A was 1.11. Take U9A A30G A65G U134C: the self-cleavage amounted to 0. Turning to U9C C19U U39C G60C C66A, the self-cleavage stood at 0.23. The value for G8A A31U U62A A67G A136G was 0.32. The value for U9C A64G U115A was 0.47.

With U9C A78G U96C A107U G139A, the self-cleavage worked out at 0. The value for U9C A50U A78G was 0.97.

Consider U9A A79G U96C U134C, for which the self-cleavage amounted to 0. The value for G8C U14A U102A was 0.77; that for G8U U104C C110U was 1.41.

G8A U73A U130C C145U: the self-cleavage turned out to be 1.61. The same measure for U9A A42G G106U: 1.01; for U9A A42G G106C: 0.68; for U9A U20A U96G A107U U109C: 0. The value for U9A U20C A42G C68A U85C was 0.11; that for U9C U12A A24G was 0.71. G8C G27A G54C U119G: the self-cleavage is 0.71.

Regarding U9A C99U A129G, the self-cleavage was determined as 0.52. As to G7U U15G A94G U100A, the self-cleavage turned out to be 0.26. The value for U9C A59U C118U was 0.93.

Regarding U9A C63U A77U C103U, the self-cleavage turned out to be 0.4. U9A G34U A43G A92G: the self-cleavage worked out at 0.2.

Turning to U9C U12A U85C, the self-cleavage turned out to be 0.24. On to U9C U14C U20A U26C, for which the self-cleavage is 1.49. On to U9A U96C U119C, for which the self-cleavage turned out to be 0.

For the variant U9A A30G G32C, the self-cleavage was found to be 1.8.

As for U9C G35A U115C U130A, the self-cleavage worked out at 1.1. The value for U9C G25U U115A was 1.33; that for U9A U104A A117U A121U was 1.38; that for U9C U13A A57G C66U U81A U102A was 0.1. The value for U9A A24U U45G U46C A78U was 1.7; that for G8C U20C A59G U100C was 0.

Regarding U9A U104C A117G, the self-cleavage was determined as 1.84. In the case of U9C A67G A117G, the self-cleavage was determined as 0.

Consider U9C A64U A79U, for which the self-cleavage stood at 0.9. As for U9A A43U A69G U81C, the self-cleavage worked out at 0. The value for U9A A69U U143C was 0.13; that for U9A U26A G35U was 1.4. As to U9A U12G A43G U115C, the self-cleavage was 0. As for U9C G53C U85C U119C A140U, the self-cleavage came out at 0.43.

For the variant U9C A42U G60U, the self-cleavage stood at 0.08. The value for G7U A69G U102C U132C was 0.33; that for U9C U12C U100A A142G was 1.04. The value for G8A U45C G82A U91A was 0.92; that for U9C A142G C146A was 0.9; that for U9A C51U G125U was 1.9. The same measure for U9C A42G U100A A117G: 0; for G8A G21A G32C A124G U143C: 0.45. In the case of U9A U14C U20A U81C, the self-cleavage worked out at 0.77. The value for U9A U62C A77G A140G was 0; that for U9A G10U A59G A79U was 0.08.

Turning to U9C A24G U26A A65U A121G, the self-cleavage came out at 0.54. The same measure for G7U U20A A69C U115A A141G C145U: 0.05; for U9C A22U A67G G82A A92G: 0.18.

Source of the values: the RNAGym collection of RNA variant scans (doi:10.7554/elife.90254).
